Molecular target: T1, Flag-Hsp70 (UniProt P0DMV8)
T1 construct: Hsp70, the inducible homolog of Hsc70 (HSPA1A/B); also called FLAG-tagged Hsp70; HSPA1A/B; source: HEK293-Tet-On, transfected (pcDNA3.1), in lysate
Test: co-IP; Flag-Hsp70 immunoprecipitated with anti-Flag M2 magnetic beads, 2 h at 4°C, from HEK-Tet-On lysate (PBS, 1% TX-100); CFTR induced for 6 h with 20 μM MG132; without or with co-expressed myc-DJA2; washed with PBS, 0.1% TX-100; eluted with FLAG peptide; immunoblot
Settings: partners not purified

Flag-Hsp70, sequence (P0DMV8 whole entry): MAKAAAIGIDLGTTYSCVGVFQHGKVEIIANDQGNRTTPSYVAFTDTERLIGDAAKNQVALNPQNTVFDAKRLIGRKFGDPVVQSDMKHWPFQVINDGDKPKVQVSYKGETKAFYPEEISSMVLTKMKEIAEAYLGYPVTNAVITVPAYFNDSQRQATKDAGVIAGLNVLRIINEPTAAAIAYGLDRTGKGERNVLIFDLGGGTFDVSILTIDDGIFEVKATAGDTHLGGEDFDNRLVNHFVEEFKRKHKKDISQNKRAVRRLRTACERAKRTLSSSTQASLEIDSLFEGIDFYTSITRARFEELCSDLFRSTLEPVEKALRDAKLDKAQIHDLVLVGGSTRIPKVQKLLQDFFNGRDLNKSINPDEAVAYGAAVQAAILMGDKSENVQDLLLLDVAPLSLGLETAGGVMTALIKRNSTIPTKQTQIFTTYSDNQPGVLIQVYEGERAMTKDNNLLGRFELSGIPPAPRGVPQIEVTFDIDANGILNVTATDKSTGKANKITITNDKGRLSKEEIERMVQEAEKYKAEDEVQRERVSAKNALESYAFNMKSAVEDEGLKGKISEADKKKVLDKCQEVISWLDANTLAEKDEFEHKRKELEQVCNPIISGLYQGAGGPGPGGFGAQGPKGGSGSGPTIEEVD

fold increase of CFTR bound by Hsp70 with overexpressed DJA2, against Flag-Hsp70 without myc-DJA2: 2.1 fold
B1: CFTR-3HA (natural protein)
chain: not shown
notes: Cystic Fibrosis transmembrane conductance regulator (CFTR, gene ABCC7), wild type; it may be internal (an extracellular loop) in this widely used construct (surmised); also called WT CFTR; Cystic Fibrosis transmembrane conductance regulator; source: HEK293-Tet-On, transfected (pTRE-Tight, induced with doxycycline for 6 h), in lysate
